In article PMC12820563:
The list shows a part of the results. The list includes weakly bound sequences.

Biological target: T1, MBP-FoxP3dN (UniProt Q99JB6)
T1 sequence: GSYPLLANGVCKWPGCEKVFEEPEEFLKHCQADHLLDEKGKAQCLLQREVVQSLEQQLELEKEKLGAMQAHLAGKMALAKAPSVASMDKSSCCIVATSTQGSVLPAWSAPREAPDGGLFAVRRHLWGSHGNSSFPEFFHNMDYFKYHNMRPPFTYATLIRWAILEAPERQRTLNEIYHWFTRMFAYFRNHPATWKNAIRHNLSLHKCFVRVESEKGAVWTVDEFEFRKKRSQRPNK
Assay: PD-seq (MBP pull-down with sequencing)
Conditions: 20 mM Tris-HCl pH 7.5, 100 mM NaCl, 1.5 mM MgCl2, 0.4 uM protein, 0.1 uM dsDNA library, 30 min, room temperature, amylose pull-down; high values mean tight binding; double strand, one strand shown

Row | Sequence | binding signal (RPM ratio (pull-down/input))
1 | GATGATTGTTCTCCCAGCTGATGAATTCTATATATCGAGTAAACAAATTTTCCTAATCTTTCTGTTCAAGCGCCATCTAC | 1.18
2 | GATGATTGTTCTCCCAGCTGATGAATTCCGCGACTCGAGTAAACAAATTTTCCTAATCTTTCTGTTCAAGCGCCATCTAC | 1.91
3 | GATGATTGTTCTCCCAGCTGATGAATTGTTGTGATCGAGTAAACAAATTTTCCTAATCTTTCTGTTCAAGCGCCATCTAC | 6.31
4 | GATGATTGTTCTCCCAGCTGATGAATTTGGGACTTCGAGTAAACAAATTTTCCTAATCTTTCTGTTCAAGCGCCATCTAC | 0.537
5 | GATGATTGTTCTCCCAGCTGATGAATTGGATGCTTCGAGTAAACAAATTTTCCTAATCTTTCTGTTCAAGCGCCATCTAC | 1.6
6 | GATGATTGTTCTCCCAGCTGATGAATTTATTATATCGAGTAAACAAATTTTCCTAATCTTTCTGTTCAAGCGCCATCTAC | 2.18
7 | GATGATTGTTCTCCCAGCTGATGAATTGCTAAGGTCGAGTAAACAAATTTTCCTAATCTTTCTGTTCAAGCGCCATCTAC | 0.42
8 | GATGATTGTTCTCCCAGCTGATGAATTGAATTCATCGAGTAAACAAATTTTCCTAATCTTTCTGTTCAAGCGCCATCTAC | 0.482
9 | GATGATTGTTCTCCCAGCTGATGAATTCGTTCGCTCGAGTAAACAAATTTTCCTAATCTTTCTGTTCAAGCGCCATCTAC | 0.308
10 | GATGATTGTTCTCCCAGCTGATGAATTAAGCGAGTCGAGTAAACAAATTTTCCTAATCTTTCTGTTCAAGCGCCATCTAC | 0.64
11 | GATGATTGTTCTCCCAGCTGATGAATTCTATCTGTCGAGTAAACAAATTTTCCTAATCTTTCTGTTCAAGCGCCATCTAC | 0.442
12 | GATGATTGTTCTCCCAGCTGATGAATTTACTGCCTCGAGTAAACAAATTTTCCTAATCTTTCTGTTCAAGCGCCATCTAC | 0.763
13 | GATGATTGTTCTCCCAGCTGATGAATTCGACGTATCGAGTAAACAAATTTTCCTAATCTTTCTGTTCAAGCGCCATCTAC | 0.744
14 | GATGATTGTTCTCCCAGCTGATGAATTCTTTGAATCGAGTAAACAAATTTTCCTAATCTTTCTGTTCAAGCGCCATCTAC | 0.231
15 | GATGATTGTTCTCCCAGCTGATGAATTGGCTTAGTCGAGTAAACAAATTTTCCTAATCTTTCTGTTCAAGCGCCATCTAC | 0.789
16 | GATGATTGTTCTCCCAGCTGATGAATTTATACGATCGAGTAAACAAATTTTCCTAATCTTTCTGTTCAAGCGCCATCTAC | 0.494
17 | GATGATTGTTCTCCCAGCTGATGAATTGTATGACTCGAGTAAACAAATTTTCCTAATCTTTCTGTTCAAGCGCCATCTAC | 0.793
18 | GATGATTGTTCTCCCAGCTGATGAATTTTAATGGTCGAGTAAACAAATTTTCCTAATCTTTCTGTTCAAGCGCCATCTAC | 0.647
19 | GATGATTGTTCTCCCAGCTGATGAATTGGGGAGATCGAGTAAACAAATTTTCCTAATCTTTCTGTTCAAGCGCCATCTAC | 0.248
20 | GATGATTGTTCTCCCAGCTGATGAATTGTCCGTATCGAGTAAACAAATTTTCCTAATCTTTCTGTTCAAGCGCCATCTAC | 0.432

Row | Sequence | binding signal (RPM ratio (pull-down/input))
21 | GATGATTGTTCTCCCAGCTGATGAATTTGCATGCTCGAGTAAACAAATTTTCCTAATCTTTCTGTTCAAGCGCCATCTAC | 3.98
22 | GATGATTGTTCTCCCAGCTGATGAATTGTATAAATCGAGTAAACAAATTTTCCTAATCTTTCTGTTCAAGCGCCATCTAC | 0.638
23 | GATGATTGTTCTCCCAGCTGATGAATTTCTTTCATCGAGTAAACAAATTTTCCTAATCTTTCTGTTCAAGCGCCATCTAC | 0.295
24 | GATGATTGTTCTCCCAGCTGATGAATTAACCTCATCGAGTAAACAAATTTTCCTAATCTTTCTGTTCAAGCGCCATCTAC | 0.352
25 | GATGATTGTTCTCCCAGCTGATGAATTGTACGAGTCGAGTAAACAAATTTTCCTAATCTTTCTGTTCAAGCGCCATCTAC | 0.325
26 | GATGATTGTTCTCCCAGCTGATGAATTTATCAAGTCGAGTAAACAAATTTTCCTAATCTTTCTGTTCAAGCGCCATCTAC | 0.32
27 | GATGATTGTTCTCCCAGCTGATGAATTATACACTTCGAGTAAACAAATTTTCCTAATCTTTCTGTTCAAGCGCCATCTAC | 0.66
28 | GATGATTGTTCTCCCAGCTGATGAATTTGGCGCATCGAGTAAACAAATTTTCCTAATCTTTCTGTTCAAGCGCCATCTAC | 1.42
29 | GATGATTGTTCTCCCAGCTGATGAATTAGGCGAGTCGAGTAAACAAATTTTCCTAATCTTTCTGTTCAAGCGCCATCTAC | 0.64
30 | GATGATTGTTCTCCCAGCTGATGAATTGCCTGTATCGAGTAAACAAATTTTCCTAATCTTTCTGTTCAAGCGCCATCTAC | 1.19
31 | GATGATTGTTCTCCCAGCTGATGAATTCTGTAATTCGAGTAAACAAATTTTCCTAATCTTTCTGTTCAAGCGCCATCTAC | 2.07
32 | GATGATTGTTCTCCCAGCTGATGAATTAGACGAGTCGAGTAAACAAATTTTCCTAATCTTTCTGTTCAAGCGCCATCTAC | 0.251
33 | GATGATTGTTCTCCCAGCTGATGAATTTCTATGATCGAGTAAACAAATTTTCCTAATCTTTCTGTTCAAGCGCCATCTAC | 0.277
34 | GATGATTGTTCTCCCAGCTGATGAATTCAGGCCTTCGAGTAAACAAATTTTCCTAATCTTTCTGTTCAAGCGCCATCTAC | 1.2
35 | GATGATTGTTCTCCCAGCTGATGAATTCATAAATTCGAGTAAACAAATTTTCCTAATCTTTCTGTTCAAGCGCCATCTAC | 0.319
36 | GATGATTGTTCTCCCAGCTGATGAATTAATGGTCTCGAGTAAACAAATTTTCCTAATCTTTCTGTTCAAGCGCCATCTAC | 0.824
37 | GATGATTGTTCTCCCAGCTGATGAATTTATATGTTCGAGTAAACAAATTTTCCTAATCTTTCTGTTCAAGCGCCATCTAC | 3.12
38 | GATGATTGTTCTCCCAGCTGATGAATTTCTGTATTCGAGTAAACAAATTTTCCTAATCTTTCTGTTCAAGCGCCATCTAC | 1.38
39 | GATGATTGTTCTCCCAGCTGATGAATTGTTTAGCTCGAGTAAACAAATTTTCCTAATCTTTCTGTTCAAGCGCCATCTAC | 3.66
40 | GATGATTGTTCTCCCAGCTGATGAATTTAATACATCGAGTAAACAAATTTTCCTAATCTTTCTGTTCAAGCGCCATCTAC | 0.619
